Molecules are shown by their SMILES. The campaign covered roughly 48,000 compounds. About 550 (1.1%) were called active. Roughly 4% stayed inconclusive and do not appear here. Cut-off read from the data, not from the text of the source: active = potency below about 15 µM; inconclusive = mostly about 16 µM to 33 µM; inactive = weaker than that. This is one part of the list.
Potency is the fitted concentration of half-maximal effect.

The assay deals with Lysosomal acid glucosylceramidase (Homo sapiens) (UniProt P04062). Briefly: Glucocerebrosidase.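 Note: the screen sought inhibitors.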 Particulars: purified enzyme, resorufin glucoside fluorescence (screen aimed at inhibitors), 20 min; series mostly up to 77 µM. Put shortly: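 Wild-type enzyme at 0.2 nM final in 50mM citric acid/KH2PO4, 10mM sodium taurocholate, 0.01% tween-20, pH 5.9, with resorufin beta-D-glucopyranoside at 30 uM final. Compounds titrated, 20 min at RT, red fluorescence read; AC50 from titration.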
UniProt P04062, sequence (P04062 whole entry, looked up): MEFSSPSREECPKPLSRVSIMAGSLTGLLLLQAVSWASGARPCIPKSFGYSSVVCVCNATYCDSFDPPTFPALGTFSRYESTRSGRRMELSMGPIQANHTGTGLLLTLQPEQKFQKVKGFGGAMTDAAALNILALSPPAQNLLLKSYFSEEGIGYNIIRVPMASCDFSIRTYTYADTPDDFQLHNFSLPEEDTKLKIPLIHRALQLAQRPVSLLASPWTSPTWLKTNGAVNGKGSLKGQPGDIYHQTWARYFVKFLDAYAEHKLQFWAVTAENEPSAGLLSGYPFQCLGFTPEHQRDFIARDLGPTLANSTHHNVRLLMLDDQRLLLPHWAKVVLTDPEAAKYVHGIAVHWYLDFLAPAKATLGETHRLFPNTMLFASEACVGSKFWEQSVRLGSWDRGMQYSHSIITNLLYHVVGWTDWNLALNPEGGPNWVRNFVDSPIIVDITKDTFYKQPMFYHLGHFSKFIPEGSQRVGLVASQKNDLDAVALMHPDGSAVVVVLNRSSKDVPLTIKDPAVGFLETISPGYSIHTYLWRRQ
For the molecule `CCOC(=O)N1CCN(C(=O)c2ccc3c(=O)n(CCc4ccccc4)c(=O)[nH]c3c2)CC1`, the Potency is inactive: > 76.9 µM. The result for `CC1(C(=O)NC2CCCCCCC2)CCC(=O)N1Cc1ccco1` (stereo not given) reads inactive: > 76.9 µM.

Turning to `CCCCS/C(=C(/C#N)C(N)=O)c1cc2c([nH]1)CCCC2`, the Potency was inactive: > 76.9 µM. The result for `CCC(=O)Nc1ccc(NC(=O)c2ccccn2)cn1` reads inactive: > 76.9 µM. For the molecule `CCN(CC)CCNC(=O)C1CCN(S(=O)(=O)N2CCCCC2)CC1`, the Potency was inactive: > 76.9 µM. The result for `Cc1ccc(NC(=O)c2ccc(OC(=O)c3ccco3)cc2)cc1` reads inactive: > 76.9 µM; that for `Cc1csc(NC(=O)C2CCCN(S(=O)(=O)c3ccc(Br)s3)C2)n1` (stereo not given), inactive: > 76.9 µM. As to `CCS(=O)(=O)NCCc1cc2cc(C)c(C)cc2[nH]c1=O`, the Potency is inactive: > 76.9 µM. The result for `Oc1ccccc1-c1cc(-c2ccc3c(c2)OCCO3)n[nH]1` reads inactive: > 76.9 µM; that for `C=CCN1C(=O)CS/C1=N/c1nccs1`, inactive: > 76.9 µM. The result for `CCN(C(=O)COc1ncnc2ccc(Br)cc12)C1CCS(=O)(=O)C1` (stereo not given) reads inactive: > 76.9 µM; that for `COc1ccc(S(=O)(=O)N2CCN(S(=O)(=O)c3ccc4c(c3)OCCO4)CC2)cc1C`, inactive: > 76.9 µM; that for `CC1CCN(C(=O)CSc2nnc(CSc3ncccn3)n2C)CC1`, inactive: > 76.9 µM. The result for `CCC(=O)Nc1ccc(C(=O)CSc2nnc(CNc3ccc(Cl)cc3)o2)cc1OC` reads inactive: > 76.9 µM. `COc1cccc(C2=NO[C@@H]3C(=O)N(Cc4ccccc4)C(=O)[C@H]23)c1OC`: the Potency was inactive: > 76.9 µM. `Cc1cc(-n2c(C)cc(C(=O)CSc3nnnn3-c3ccc(Cl)cc3)c2C)no1`: the Potency was inactive: > 76.9 µM. For the molecule `CCOc1ccc(N2CC(=O)Nc3ccccc3NCC2=O)cc1`, the Potency was inactive: > 76.9 µM. Regarding `Cc1ccc(N(CC(=O)Nc2ccc(F)c(Cl)c2)S(=O)(=O)c2c(C)noc2C)cc1`, the Potency entry was “inactive”.

With `CN1CCN(C(=O)c2ccc(S(=O)(=O)c3ccc(Br)cc3)cc2)CC1`, the Potency was inactive: > 76.9 µM. The result for `C=CCOc1c(CNc2nccs2)cccc1OCC` reads inactive: > 76.9 µM; that for `CC1=C(C(=O)Nc2ccccc2)C(c2ccncc2)C(C#N)=C(SCC(=O)NC2CC2)N1` (stereo not given), inactive: > 76.9 µM.

As to `CS(=O)(=O)N(CC(=O)NCc1ccccn1)Cc1ccc(Cl)cc1`, the Potency was inactive: > 76.9 µM. On to `NC(=O)CSc1ccc(Br)cc1`, for which the Potency was inactive: > 76.9 µM.

As for `CCN(CC)C(=O)CSc1nnc(-c2ccccn2)n1-c1ccc(C)c(C)c1`, the Potency is inactive: > 76.9 µM. The result for `CCOC(=O)c1c(C)nc2cc(C)ccn12` reads inactive: > 76.9 µM.

The values above are taken from PubChem BioAssay AID360 (National Center for Advancing Translational Sciences (NCATS), 2006).
